What was measured:
Assay in all cases: SPR; apparent KD, dimeric Fc-fused target
[1] = target: UU-44
[2] = target: UU-84
[3] = target: UU-40
[4] = target: UU-22
[5] = target: UU-10
[6] = target: UU-86
[7] = target: UU-14
[8] = target: UU-8
[9] = target: UU-46
[10] = target: UU-34
[11] = target: UU-88

B1: CD44 (isoform 4), Fc-fused (Fc fusion)
chain: [left out - about 200 residues]ATSTSSNTISAGWEPNEENEDERDRHLSFSGSGIDDDEDFISSTISTTPRAFDHTKQNQDWTQWNPSHSNPEVLLQTTTRMTDVDRNGTTAYEGNWNPEAHPPLIHHEHHEEEETPHSTSTIQATPSSTTEETATQKEQWFGNRWHEGYRQTPKEDSHSTTGTAAASAHTSHPMQGRTTPSPEDSSWTDFFNPISHPMGRGHQAGRRMDMDSSHSITLQPTANPNTGLVEDLDRTGPLSMTTQQSNSQSFSTSHEGLEEDKDHPTTSTLTSSNRNDVTGGRRDPNHSEGSTTLLEGYTSHYPHTKESRTFIPVTSAKTGSFGVTAVTVGDSNSNVNRSLSGDQDTFHPSGGSHTTHGSESDGHSHGSQEGGANTTSGPIRTPQIPE
Kd [1]: 3.8 nM
Kd [2]: 7 nM
Kd [3]: 0.8 nM
Kd [4]: 3.8 nM
Kd [5]: 1.1 nM
Kd [6]: 3.2 nM
Kd [7]: 6.1 nM
Kd [8]: 3.3 nM
Kd [9]: 3.9 nM
Kd [10]: 1.1 nM
Kd [11]: 0.8 nM
